# PubChem BioAssay AID2546 (National Center for Advancing Translational Sciences (NCATS), 2010)
# The campaign covered roughly 310,000 compounds. About 11,000 (3.5%) were called active. Inconclusive means that the source gave no clear call. Such entries were picked first, then a sample of the others. The call rests on the fitted dose curve; in most records, active means well fitted inhibition curve with a large enough effect; inconclusive means small, poorly fitted or top-dose-only effect, or effect the other way; inactive means flat fitted curve, though single readings scatter. Potencies of inconclusive entries are left out as doubtful fits.
# Experiment: VP16 counterscreen qHTS for inhibitors of ROR gamma transcriptional activity;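 further: Gal4-VP16 expression switched on by copper sulfate through the metallothionein promoter; nearly all actives have a fitted effect of over 50% in size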
# Conditions: Drosophila S2 Gal4-VP16 UAS-luciferase, luminescence, 20 h; series mostly up to 53.6 µM
# Potency means the concentration at half of the fitted maximal effect; tags describe the fitted curve by direction and shape.
row,Structure (SMILES),Potency
1,O=c1c(Cl)c(Cl)cnn1-c1ccccc1,active: 11.2 µM
2,CCn1c(SC)nc2c(c1=O)SC(C)C2 (stereo not given),inactive
3,COC(=O)c1ccc2c(=O)n(Cc3ccc4c(c3)OCO4)c(=S)[nH]c2c1,active: 3.55 µM
4,O=C(COc1ccc2ccccc2c1)Nc1nccs1,active: 15.8 µM
5,CC(=O)c1cc2c(cc1NC(=O)CN1CCC(Cc3ccccc3)CC1)OCO2,inactive
6,CC(CCc1ccccc1)NC(=O)COc1cc(F)ccc1[N+](=O)[O-] (stereo not given),"inconclusive [inhibitor, single point]"
7,Cc1nc(C)c(C(=O)N/N=C/c2cn(C)c3ccccc23)s1,"inconclusive [inhibitor, single point]"
8,COc1cc(-c2c(-c3cc(OC)c(OC)c(OC)c3)noc2C)ccc1F,inactive
9,CCc1ccc(NC(=O)c2cnn(-c3ccccc3)c2C)cc1,"inconclusive [inhibitor, single point]"
10,Cc1ccc(NC(=O)c2ccc(N3CCOCC3)c([N+](=O)[O-])c2)cc1S(=O)(=O)N1CCOCC1,"inconclusive [inhibitor, single point]"
11,COc1ccc(OC)c(-c2c3cc(O)c(=O)cc-3oc3cc(O)c(O)cc23)c1,"inconclusive [inhibitor, partial curve]"
12,CCOC(=O)c1sc2nc(C)n(CC(=O)NCC3CCCO3)c(=O)c2c1C (stereo not given),inactive
13,COc1ccc2nc(N3CCC(C)CC3)c(C#N)cc2c1,"inconclusive [inhibitor, single point]"
14,C=C1C(=O)[C@@]23[C@H](O)C[C@@H]4C(C)(C)CC[C@H](O)[C@@]4(C)[C@@H]2CC[C@@H]1[C@H]3O,active: 5.62 µM
15,O=S(=O)(c1ccc(Cl)c(NC(=S)N/N=C/c2c(F)cccc2F)c1)N1CCOCC1,active: 1.78 µM
16,CCOC(=O)C1CCN(C(=O)C2CCN(S(=O)(=O)c3cc(Cl)ccc3Cl)CC2)CC1,"inconclusive [inhibitor, single point]"
17,O=C(CCSc1nnc(-c2ccncc2)o1)Nc1ccc(F)cc1,"inconclusive [inhibitor, single point]"
18,COc1ccc2nc(N/C(N)=N/C(=S)Nc3ccc(C)c(C)c3)nc(C)c2c1,"inconclusive [inhibitor, full curve, poor fit]"
19,COCc1cc(C)n(CC(=O)NC(C)c2ccccc2)c(=O)c1C#N (stereo not given),inactive
20,Cc1nonc1OCCNc1ccc([N+](=O)[O-])cc1,"inconclusive [activator, single point]"
